From the antibiotic and cytotoxicity screens of Wong et al. (2023)
Some of the results follow.

Tests used:
[1] = system: HSkMC (human skeletal muscle cells); assay: cytotoxicity call (relative viability < 0.9); details: 10 µM
[2] = system: HepG2; assay: cytotoxicity call (relative viability < 0.9); details: 10 µM
[3] = system: S. aureus RN4220; assay: growth inhibition call (relative growth <= 0.2); details: 50 µM

SMILES	cytotoxicity call [1]	cytotoxicity call [2]	growth inhibition call [3]
C[C@@H]1CN([C@@H](C)CO)C(=O)c2cc(-c3ccc(C(=O)N(C)C)cc3)cnc2O[C@H]1CN(C)C(=O)c1ccncc1	inactive	inactive	inactive
C[C@@H]1CN([C@@H](C)CO)C(=O)Cc2cc(NC(=O)NC3CCCCC3)ccc2O[C@H]1CN(C)S(=O)(=O)c1cn(C)cn1	inactive	inactive	inactive
CCN(CC)CCNC(=O)c1c(C)[nH]c(/C=C2/C(=O)Nc3ccc(-c4csc(-c5ccccc5)n4)cc32)c1C	active	active	inactive
Cc1noc(C)c1S(=O)(=O)Nc1ccc2c(c1)CC(=O)N([C@@H](C)CO)C[C@H](C)[C@H](CN(C)S(C)(=O)=O)O2	inactive	inactive	inactive
C[C@H](CO)N1C[C@H](C)[C@@H](CN(C)Cc2ccc(C(=O)O)cc2)Oc2c(NC(=O)c3ccncc3)cccc2C1=O	inactive	inactive	inactive
CO[C@@H]1CN(C)C(=O)c2ccc(NS(=O)(=O)c3ccccc3F)cc2OC[C@@H](C)N(S(C)(=O)=O)C[C@H]1C	inactive	inactive	inactive
C[C@H]1CN([C@@H](C)CO)C(=O)Cc2cc(NS(=O)(=O)c3ccc(Cl)cc3)ccc2O[C@@H]1CN(C)S(C)(=O)=O	inactive	inactive	inactive
Cc1cc(C(=O)Nc2cccc3c2O[C@@H](CN(C)C(=O)NC2CCCCC2)[C@@H](C)CN([C@@H](C)CO)C3=O)n(C)n1	inactive	inactive	inactive
O=c1c(O)nnc2n1CCN2c1ccccc1	inactive	inactive	inactive
C[C@H]1CN([C@@H](C)CO)C(=O)CCCn2cc(nn2)CO[C@@H]1CN(C)C(=O)C1CC1	inactive	inactive	inactive
Cc1ccccc1-c1ccc2c(c1)O[C@@H](CN(C)C(=O)Nc1ccc(C(F)(F)F)cc1)[C@H](C)CN([C@H](C)CO)S2(=O)=O	inactive	inactive	inactive
COc1cccc(S(=O)(=O)N(C)C[C@@H]2OCc3cn(nn3)CCCC(=O)N([C@H](C)CO)C[C@H]2C)c1	inactive	inactive	inactive
O=C(C[C@H]1C[C@@H]2c3cc(NC(=O)c4cccnc4)ccc3O[C@@H]2[C@@H](CO)O1)NCc1cc(F)ccc1F	inactive	inactive	inactive
COc1ccc2oc(C(C)=O)cc2c1	inactive	inactive	inactive
CCCN(C)C[C@H]1OCCCC[C@@H](C)Oc2ccc(NC(=O)C3CCCCC3)cc2C(=O)N([C@@H](C)CO)C[C@H]1C	inactive	inactive	inactive
O=C(O)C1=CCNCC1	inactive	inactive	inactive
C[C@@H]1CN([C@@H](C)CO)C(=O)c2cc(NC(=O)CCCN(C)C)ccc2O[C@H]1CN(C)S(=O)(=O)c1cccs1	inactive	inactive	inactive
C[C@@H]1CN([C@@H](C)CO)C(=O)c2cccc(NC(=O)c3ccc(-c4nccs4)cc3)c2O[C@H]1CN(C)S(C)(=O)=O	inactive	inactive	inactive
Cn1c(=O)n(C)c2cc(S(=O)(=O)N3CC[C@H]4CNC[C@H]43)ccc21	inactive	inactive	inactive
CC1NC(=O)C2CCCN2C(=O)C(CC(N)=O)NC(=O)C2CSSCC(N)C(=O)NC3CSSCC(NC1=O)C(=O)NC(C(C)O)C(=O)NCC(=O)NC(C(=O)NC(Cc1ccc(O)cc1)C(=O)O)CSSCC(NC(=O)C(Cc1ccc(O)cc1)NC(=O)C(CCC(=O)O)NC3=O)C(=O)N2 (centres undefined)	inactive	inactive	inactive
CCS(=O)(=O)N1[C@@H](CO)[C@@H](c2ccccc2)C12CN(C(=O)CN(C)C)C2	inactive	inactive	inactive
COc1ccc(CN(C)C[C@@H]2OCCCC[C@@H](C)Oc3ccc(NS(=O)(=O)c4ccccc4)cc3C(=O)N([C@@H](C)CO)C[C@@H]2C)cc1	inactive	inactive	inactive
C[C@H]1CCCCO[C@H](CN(C)C(=O)C2CCCCC2)[C@@H](C)CN([C@@H](C)CO)C(=O)c2cc(NC(=O)Nc3ccc(F)cc3)ccc2O1	inactive	active	inactive
Cc1ccc(S(=O)(=O)N(C)C[C@H]2Oc3ccc(NC(=O)c4ccncc4)cc3C(=O)N([C@H](C)CO)C[C@H]2C)cc1	inactive	inactive	inactive
C[C@@H]1CN([C@@H](C)CO)C(=O)c2ccccc2-c2ccccc2CO[C@@H]1CN(C)C(=O)Nc1ccccc1C(F)(F)F	inactive	active	inactive
C[C@@H]1CN([C@@H](C)CO)C(=O)Cc2cc(NC(=O)C3CCCCC3)ccc2O[C@@H]1CN(C)Cc1ccc(Cl)c(Cl)c1	active	inactive	inactive
C[C@H](CO)N1C[C@H](C)[C@@H](CN(C)Cc2ccc(Cl)c(Cl)c2)Oc2ccc(NC(=O)Nc3cccc4ccccc34)cc2CC1=O	inactive	inactive	inactive
C[C@@H]1CN([C@@H](C)CO)C(=O)Cc2cc(NC(=O)Cn3cnnn3)ccc2O[C@@H]1CN(C)Cc1ccc(Oc2ccccc2)cc1	inactive	inactive	inactive
